From PubChem BioAssay (NCATS)
The shares of active, inactive and inconclusive entries below differ from those in the screen. For some of these results: Potencies of inconclusive entries are doubtful fits and often do not repeat. Active and inactive are the calls of the source. The call rests on the fitted dose curve; in most records, active means well fitted curve in the direction sought with a large enough effect; inconclusive means small, poorly fitted or top-dose-only effect, or another doubt; inactive means no such curve, though single readings can be large; an effect the other way counts as inactive or inconclusive.

What was measured:
CRL-7250 = normal cell line; test: Cytotoxic Profiling of Annotated Libraries Using Quantitative High-Throughput Screening (AID 1296008); conditions: Five cell lines viability, CellTiter-Glo ATP luminescence, 48-72 h; max response: hits give low values; further: nearly all actives have a fitted effect of over 60% in size; on max response: on the % scale 0 is the no-effect control and ±100 the full control effect
How it was run: (§1)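 Cytotoxicity was measured as CellTiter-Glo ATP luminescence, read after 10 min at room temperature. Compound treatment of the cells lasted 48 or 72 hr at 37 degrees Celsius in a qHTS format.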

HEK293 = test: as above; conditions: Five cell lines viability, CellTiter-Glo ATP luminescence, 48-72 h; max response: hits give low values
How it was run: as §1

KB-3-1 = test: as above; conditions: Five cell lines viability, CellTiter-Glo ATP luminescence, 48-72 h; max response: hits give low values
How it was run: as §1

CASKI = test: Primary qHTS to identify gynecologic anti-cancer compounds using libraries of approved drugs and bioactive compounds (AID 1345084); conditions: Gynecologic cancer cell panel viability, ATPlite luminescence, 48 h; activity change, negative = cytotoxicity: at 57.5 µM (top of the series); further: nearly all actives have a fitted effect of over 55% in size; on activity change, negative = cytotoxicity: on the % scale 0 is the no-effect control and ±100 the full control effect
How it was run: (§2)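 Measured: luminescence after ATPlite addition (15 min, RT). Exposure: 48 h, 37 C, 5% CO2.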

Es-2 = test: as above; conditions: Gynecologic cancer cell panel viability, ATPlite luminescence, 48 h; series mostly up to 57.5 µM
How it was run: as §2

Hek293T = test: as above; conditions: Gynecologic cancer cell panel viability, ATPlite luminescence, 48 h, control line for the selectivity index; series mostly up to 57.5 µM
How it was run: as §2

JEG-3 = test: as above; conditions: Gynecologic cancer cell panel viability, ATPlite luminescence, 48 h; series mostly up to 57.5 µM
How it was run: as §2

PA-1 = test: as above; conditions: Gynecologic cancer cell panel viability, ATPlite luminescence, 48 h; series mostly up to 57.5 µM
How it was run: as §2

SKOV3 = test: as above; conditions: Gynecologic cancer cell panel viability, ATPlite luminescence, 48 h; series mostly up to 57.5 µM
How it was run: as §2

Tov-21-G = test: as above; conditions: Gynecologic cancer cell panel viability, ATPlite luminescence, 48 h; activity change, negative = cytotoxicity: at 57.5 µM (top of the series)
How it was run: as §2

Tov112D = test: as above; conditions: Gynecologic cancer cell panel viability, ATPlite luminescence, 48 h; activity change, negative = cytotoxicity: at 57.5 µM (top of the series)
How it was run: as §2

[1] = P-glycoprotein substrates identified in KB-8-5-11 adenocarcinoma cell line, qHTS therapeutic library screen (AID 1346987); conditions: KB-8-5-11 (P-gp overexpressing) viability, CellTiter-Glo, 72 h; series mostly up to 44.5 µM; further: nearly all actives have a fitted effect of over 65% in size
How it was run: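 Luminescence from CellTiter-Glo, read 5 min after addition, quantified survival of KB-8-5-11 (P-gp-overexpressing) cells exposed to compounds for 72 h. AC50 was derived from concentration-response curves.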

[2] = system: Zika virus NS2B-NS3 protease (unlinked complex); test: Primary screen GU Rhodamine qHTS for Zika virus inhibitors: Unlinked NS2B-NS3 protease assay (AID 1347159); conditions: Recombinant ZIKV NS2B-NS3 protease, Rhodamine110 substrate fluorescence; series mostly up to 107 µM; further: nearly all actives have a fitted effect of over 60% in size
How it was run: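 Unlinked NS2B/NS3, 25 nM; Rhod110 peptide, 1.5 microM; compounds, up to 114 microM. Reaction run 15 min at RT in 10 mM Tris-HCl pH 8.0, 0.01% Tween 20; kinetic fluorescence change fitted with a 4-parameter Hill model.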

[3] = Primary fluorescence-based thiol-reactive (MSTI) qHTS assay for identification of artifact compounds. (AID 1845221); conditions: MSTI thiol-reactivity probe, 1 h; series mostly up to 53.8 µM;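 further: thiol-reactive compounds lower the probe fluorescence signal; nearly all actives have a fitted effect of over 65% in size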
How it was run: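 Reactivity toward the thiol probe MSTI (4 uM) is scored by fluorescence at Ex/Em 525/598 nm after 1 h at room temperature. Acetyl-MSTI and MSTI define the activity scale.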

C33A = test: Primary qHTS to identify gynecologic anti-cancer compounds using libraries of approved drugs and bioactive compounds (AID 1345084); conditions: Gynecologic cancer cell panel viability, ATPlite luminescence, 48 h; series mostly up to 57.5 µM; further: nearly all actives have a fitted effect of over 55% in size; on activity change, negative = cytotoxicity: on the % scale 0 is the no-effect control and ±100 the full control effect
How it was run: as §2

[4] = Primary qHTS for inhibitors of nuclear receptor binding SET domain protein 2 (NSD2) in an isogenic RCH-ACV NSD2 p.E1099K mutant (9B) (AID 1645876); conditions: RCH-ACV NSD2 E1099K (9B) viability, CellTiter-Glo, 72 h; series mostly up to 44.9 µM; further: nearly all actives have a fitted effect of over 70% in size
[5] = Primary qHTS for inhibitors of nuclear receptor binding SET domain protein 2 (NSD2) in an RCH-ACV wild type WT cells (2C) (AID 1645877); conditions: RCH-ACV (leukaemia line) NSD2 WT (2C) viability, CellTiter-Glo, 72 h; activity change, negative = cell killing: at 44.9 µM (top of the series); series mostly up to 44.9 µM; further: nearly all actives have a fitted effect of over 70% in size
CAOV3 = test: Primary qHTS to identify gynecologic anti-cancer compounds using libraries of approved drugs and bioactive compounds (AID 1345084); conditions: Gynecologic cancer cell panel viability, ATPlite luminescence, 48 h; series mostly up to 57.5 µM; further: nearly all actives have a fitted effect of over 55% in size; on activity change, negative = cytotoxicity: on the % scale 0 is the no-effect control and ±100 the full control effect
How it was run: as §2

OV90 = test: as above; conditions: Gynecologic cancer cell panel viability, ATPlite luminescence, 48 h; series mostly up to 57.5 µM
How it was run: as §2

NIH3T3 = test: Cytotoxic Profiling of Annotated Libraries Using Quantitative High-Throughput Screening (AID 1296008); conditions: Five cell lines viability, CellTiter-Glo ATP luminescence, 48-72 h; max response: hits give low values; further: nearly all actives have a fitted effect of over 60% in size
How it was run: as §1
Potency means the concentration at half of the fitted maximal effect; tags describe the fitted curve by direction and shape.

Cc1ccc(S(=O)(=O)Cc2nc(-c3ccc(C(=O)NCc4cccnc4)cc3)oc2C)cc1
active: Potency (CRL-7250) 0.0651 µM | Potency (HEK293) 0.0065 µM | Potency (KB-3-1) 0.0082 µM
inactive: Potency (JEG-3)
inconclusive: Potency (CASKI) 0.708 µM [cytotoxic, full curve, poor fit] | Potency (Es-2) 6.31 µM | Potency (Hek293T) 31.6 µM | Potency (PA-1) 10 µM | Potency (SKOV3) 12.6 µM | Potency (Tov-21-G) 0.1 µM | Potency (Tov112D) 0.1 µM

CN(C)CCCCCCNC(=O)c1cccc(-c2cc(O)c3ncccc3c2)c1
inconclusive: Potency [2] 100 µM [inhibitor, single point] | Potency [3] 0.67 µM [inhibitor, full curve] | Potency (CRL-7250) 18.4 µM [inhibitor, single point] | Potency (HEK293) 29.1 µM [inhibitor, single point] | Potency (KB-3-1) 23.1 µM [inhibitor, single point] | Potency (C33A) 20 µM [cytotoxic, single point] | Potency (CASKI) 25.1 µM [cytotoxic, single point] | Potency (Es-2) 39.8 µM [cytotoxic, single point] | Potency (Hek293T) 39.8 µM [cytotoxic, single point] | Potency (PA-1) 25.1 µM [cytotoxic, single point] | Potency (Tov-21-G) 20 µM [cytotoxic, partial curve, poor fit] | Potency (Tov112D) 20 µM [cytotoxic, partial curve]
active: Potency [1] 8.2 µM

Cc1cc(-c2nc(-c3ccc(OC(F)(F)F)cc3)no2)nn1Cc1ccnc(N2CCN(C3CC3)CC2)c1
inconclusive: Potency [1] 0.0517 µM [inhibitor, full curve, poor fit] | Potency [4] 0.0041 µM [inhibitor, full curve] | Potency [5] 0.0103 µM [inhibitor, full curve] | Potency (KB-3-1) 0.0082 µM [inhibitor, full curve] | Potency (C33A) 0.0224 µM | Potency (CASKI) 0.1 µM | Potency (OV90) 0.316 µM [cytotoxic, full curve, poor fit] | Potency (SKOV3) 2 µM
inactive: Potency (CAOV3)
active: Potency (CRL-7250) 0.0259 µM | Potency (HEK293) 0.0065 µM

CN(c1ccc(NC(=O)Nc2ccccc2)cc1)S(=O)(=O)c1cnn(-c2ccc(F)cc2)c1
inactive: Potency [3]
active: Potency (HEK293) 16.4 µM
inconclusive: Potency (CRL-7250) 29.1 µM [inhibitor, single point] | Potency (KB-3-1) 23.1 µM [inhibitor, single point] | Potency (Hek293T) 31.6 µM [cytotoxic, partial curve, poor fit] | Potency (SKOV3) 15.8 µM [cytotoxic, single point]

O=C(Nc1cccc(C(F)(F)F)c1)Nc1ccc(Br)cc1-c1nn[nH]n1
inconclusive: Potency (CRL-7250) 20.6 µM [inhibitor, single point] | Potency (HEK293) 29.1 µM [inhibitor, single point] | Potency (NIH3T3) 23.1 µM [inhibitor, single point] | Potency (C33A) 35.5 µM [cytotoxic, single point] | Potency (CAOV3) 39.8 µM [cytotoxic, partial curve, poor fit] | Potency (CASKI) 39.8 µM [cytotoxic, single point] | Potency (Es-2) 31.6 µM [cytotoxic, single point] | Potency (Hek293T) 39.8 µM [cytotoxic, single point] | Potency (OV90) 39.8 µM [cytotoxic, single point] | Potency (PA-1) 39.8 µM [cytotoxic, single point] | Potency (SKOV3) 25.1 µM [cytotoxic, single point] | Potency (Tov-21-G) 39.8 µM [cytotoxic, single point] | Potency (Tov112D) 39.8 µM [cytotoxic, single point]
active: Potency [2] 3.16 µM

OCc1ccc(-c2ccc(-c3ccc(CO)s3)o2)s1
active: Potency [3] 2.6 µM | Potency (CAOV3) 0.199 µM | Potency (Hek293T) 1.41 µM | Potency (OV90) 3.16 µM | Potency (PA-1) 0.355 µM | Potency (SKOV3) 12.6 µM
inconclusive: Potency [2] 39.8 µM [inhibitor, single point] | Potency (CRL-7250) 37.2 µM [inhibitor, single point] | Potency (HEK293) 33.2 µM [inhibitor, single point] | Potency (NIH3T3) 14.2 µM [inhibitor, single point] | Potency (CASKI) 14.1 µM [cytotoxic, partial curve, poor fit] | Potency (Es-2) 17.8 µM [cytotoxic, single point] | Potency (Tov112D) 10 µM [cytotoxic, single point]
inactive: Potency (C33A)

CC(C)(C)c1nc2c3cc[nH]c(=O)c3c3cc(F)ccc3c2[nH]1
inconclusive: Potency [1] 2.09 µM [inhibitor, full curve] | Potency (CRL-7250) 3.32 µM [inhibitor, full curve] | Potency (HEK293) 2.09 µM [inhibitor, full curve] | Potency (NIH3T3) 2.64 µM [inhibitor, full curve]

CC(=O)[C@@]1(O)CC[C@H]2[C@@H]3C[C@H](C)C4=CC(=O)CC[C@]4(C)[C@H]3CC[C@@]21C
inconclusive: Potency [1] 29.1 µM [inhibitor, single point] | Potency (HEK293) 23.7 µM [inhibitor, single point] | Potency (NIH3T3) 33.5 µM [inhibitor, single point]
inactive: max response (CRL-7250) -14.2% | Potency (C33A)

O=C(c1cc(O)c(O)c(O)c1)c1ccc(O)c(O)c1O
active: Potency [5] 13.3 µM
inactive: max response (CRL-7250) -19.4% | Potency (CAOV3) | Potency (Tov-21-G)
inconclusive: Potency (HEK293) 33.5 µM [inhibitor, single point] | Potency (NIH3T3) 29.9 µM [inhibitor, partial curve, poor fit]

C=CCCN1CCC2(CC1)CN(C(=O)c1c(F)cccc1F)c1ccc(Cl)cc12
inactive: Potency [1] | outcome (CRL-7250) | outcome (KB-3-1) | Potency (SKOV3)
inconclusive: Potency [4] 29 µM [inhibitor, single point] | Potency [5] 18.3 µM [inhibitor, single point] | Potency (HEK293) 29.1 µM [inhibitor, single point]

O=C(CCC1CCN(Cc2ccccc2)CC1)c1ccc2c(c1)NCCCC2
inconclusive: Potency [1] 18.4 µM [inhibitor, partial curve] | Potency [4] 23.7 µM [inhibitor, single point] | Potency [5] 23.7 µM [inhibitor, partial curve] | Potency (CRL-7250) 13 µM [inhibitor, partial curve] | Potency (HEK293) 29.1 µM [inhibitor, single point] | Potency (NIH3T3) 26.6 µM [inhibitor, single point] | Potency (CAOV3) 20 µM [cytotoxic, single point] | Potency (OV90) 11.2 µM [cytotoxic, partial curve] | Potency (PA-1) 39.8 µM [cytotoxic, single point] | Potency (SKOV3) 35.5 µM [cytotoxic, single point]

Cc1cccc(CC(=O)N2CCc3c2ccc(-c2cn(C)c4ncnc(N)c24)c3F)n1
active: Potency (CRL-7250) 1.84 µM | Potency (HEK293) 5.8 µM
inactive: Potency (JEG-3)
inconclusive: Potency [1] 2.06 µM [inhibitor, full curve] | Potency [4] 2.3 µM [inhibitor, full curve, poor fit] | Potency (KB-3-1) 2.31 µM [inhibitor, full curve, poor fit] | Potency (SKOV3) 7.08 µM [cytotoxic, single point]

COc1ccccc1OCCNCC(O)CCOc1cccc2[nH]c3ccccc3c12 (stereo unspecified)
active: Potency [1] 18.4 µM
inactive: outcome (CRL-7250)
inconclusive: Potency (HEK293) 20.6 µM [inhibitor, single point] | Potency (KB-3-1) 18.4 µM [inhibitor, single point]

COc1c(C(O)CC(C)C)ccc2c1C(=O)OCc1cc(C)cc(O)c1O2 (stereo unspecified)
inactive: max response (KB-3-1) -22.7%
inconclusive: Potency [2] 28.2 µM [inhibitor, partial curve] | Potency [4] 11.3 µM [inhibitor, single point] | Potency [5] 16 µM [inhibitor, single point] | Potency (CRL-7250) 20.2 µM [inhibitor, single point] | Potency (HEK293) 11.4 µM [inhibitor, single point]

CC(=O)ON=C1C(c2c(O)[nH]c3cc(Br)ccc23)=Nc2ccccc21
inconclusive: Potency (CRL-7250) 9.35 µM [inhibitor, full curve] | Potency (NIH3T3) 13.2 µM [inhibitor, partial curve]
active: Potency (HEK293) 14.8 µM
